# Measurements published in publication PMC4336329 (PLoS ONE, 2015).
# Among all 310,000 compounds or so, about 14,000 (4.5%) showed an effect of 50% or more. The effect is printed as a negative number. Some of the results follow.
# Molecular target: human ether-à-go-go-related gene (hERG) potassium channel (human, UniProt Q12809)
# Assay: primary screen, population patch clamp on CHO cells stably expressing hERG
# 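Note: peak tail current of the secondary pulse compared with the same well before compound.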
# Chain of human ether-à-go-go-related gene (hERG) potassium channel (Q12809 whole entry, looked up): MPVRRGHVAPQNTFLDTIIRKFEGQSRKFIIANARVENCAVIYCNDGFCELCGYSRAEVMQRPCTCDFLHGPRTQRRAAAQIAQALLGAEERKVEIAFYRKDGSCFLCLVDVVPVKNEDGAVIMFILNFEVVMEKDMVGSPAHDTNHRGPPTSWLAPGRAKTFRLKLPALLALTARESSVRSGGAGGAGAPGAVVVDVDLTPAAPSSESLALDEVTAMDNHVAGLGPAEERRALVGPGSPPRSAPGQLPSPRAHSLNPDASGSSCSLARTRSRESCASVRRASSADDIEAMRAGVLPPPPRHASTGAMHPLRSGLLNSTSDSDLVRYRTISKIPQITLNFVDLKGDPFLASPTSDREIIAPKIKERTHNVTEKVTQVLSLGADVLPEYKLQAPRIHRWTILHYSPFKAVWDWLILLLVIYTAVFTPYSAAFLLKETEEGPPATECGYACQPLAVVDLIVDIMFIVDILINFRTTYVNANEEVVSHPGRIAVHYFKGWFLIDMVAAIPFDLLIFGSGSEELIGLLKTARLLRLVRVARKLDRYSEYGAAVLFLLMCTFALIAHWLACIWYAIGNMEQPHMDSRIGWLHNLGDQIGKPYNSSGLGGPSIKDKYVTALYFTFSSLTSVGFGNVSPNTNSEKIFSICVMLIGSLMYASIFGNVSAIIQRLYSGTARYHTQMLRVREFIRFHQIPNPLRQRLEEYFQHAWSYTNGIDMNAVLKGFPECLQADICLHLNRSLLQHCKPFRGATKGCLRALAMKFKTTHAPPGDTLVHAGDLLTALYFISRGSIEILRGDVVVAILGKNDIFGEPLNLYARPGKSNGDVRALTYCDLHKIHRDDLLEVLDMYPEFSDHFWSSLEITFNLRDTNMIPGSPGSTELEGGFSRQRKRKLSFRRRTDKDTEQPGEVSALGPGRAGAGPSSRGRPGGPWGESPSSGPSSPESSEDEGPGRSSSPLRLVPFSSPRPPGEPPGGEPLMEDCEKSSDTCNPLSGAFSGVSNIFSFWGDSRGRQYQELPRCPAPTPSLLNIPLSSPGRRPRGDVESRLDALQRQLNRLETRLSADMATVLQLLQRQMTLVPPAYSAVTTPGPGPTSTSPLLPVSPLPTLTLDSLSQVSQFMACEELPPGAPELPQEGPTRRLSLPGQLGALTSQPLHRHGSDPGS
row,SMILES,"hERG current change (%, negative = inhibition) at 10uM [%]"
1,CSc1cccc(NS(=O)(=O)c2ccc3c(c2)NC(=O)C(C)C(=O)N3)c1 (centres unmarked),-3.61
2,CC(=O)NC(=O)NC1CSCC1OC(C)=O (centres unmarked),15.8
3,O=S(=O)(c1cccc2cccnc12)N1CCN(c2ccccc2)CC1,5.87
4,CC(C)COC(=O)COc1cc(Cl)c(Cl)cc1Cl,13.5
5,CCOC(=O)c1c(S(=O)(=O)NCC(=O)N2CCN(c3ccc(F)cc3)CC2)c(C)n(C)c1C,-45.5
6,Cn1c(COc2ccccc2O)[n+](C)c2ccccc21.[Br-],15.8
7,COCCN(C(=S)Nc1ccc(C)cc1C)C(C)c1cccs1 (centres unmarked),3.09
8,CC(=O)c1ccc(S(=O)(=O)N(C)CCCC(=O)N(C)Cc2c(F)cccc2Cl)cc1,-19.3
9,C=CCn1c(=O)c(C(=O)NCCNCC)c(O)c2ccccc21.Cl,2.97
10,O=C(CN1CCN(c2ccccc2Cl)CC1)NC1CCCc2ccccc21.O=C(O)C(=O)O (centres unmarked),-11.9
11,Cc1ccc(OCCC(=O)Nc2ccc(C)c(F)c2)cc1,-50.6
12,CCC(=O)N(Cc1cc2cc(C)c(C)cc2[nH]c1=O)C1CCCCC1,-8.98
13,CC1CCC(NC(=O)c2ccc(N3CCCC3=O)cc2)CC1 (centres unmarked),-4.44
14,CC(O)CNc1nc2ccccc2n1CC(=O)NC12CC3CC(CC(C3)C1)C2 (centres unmarked),4.74
15,N/C(=N\OC(=O)c1ccccc1[N+](=O)[O-])c1ccccn1,27.5
16,Nc1nc(SCC(=O)Nc2cccc(Oc3ccccc3)c2)n[nH]1,-13.8
17,CCC(=O)Nc1cc(-c2nc3ncccc3o2)ccc1Cl,5.64
18,CCOc1cc(Br)cc(/C=N/NC(=O)c2cccnc2)c1O,-7.42
19,OCCN(Cc1ccccc1)Cc1ccc(C(F)(F)F)cc1,-3.33
20,N/C(=N\OC(=O)c1cccs1)c1ccccc1,3.32
21,Cc1cc(-n2c(SCC(=O)Nc3ccc(F)c(F)c3)nc3n[nH]c(C)c3c2=N)ccc1Cl,13.3
22,O=C(NCc1cccc(Cl)c1)c1ccc(N2CC3CC(C2)c2cccc(=O)n2C3)c(NC(=O)c2cccnc2)c1 (centres unmarked),-0.865

row,SMILES,"hERG current change (%, negative = inhibition) at 10uM [%]"
1,COc1cc(OC)cc(C(=O)Nc2cccc(N3CCCC3)c2)c1,11.1
2,CC(=O)Nc1cccc(C(=O)OCC(=O)NNC(=O)c2cccs2)c1,21.1
3,CCOP(=O)(OCC)C(NC(=O)c1ccccc1Cl)=C(Cl)Cl,15.4
4,C=CCOc1ccccc1/C=N/NC(=O)Cc1ccc(C)cc1,8.17
5,Cc1ccc(NC(=O)N(CCC#N)Cc2ccccc2)cc1,-25.5
6,CC(c1cccs1)N(Cc1ccco1)C(=S)Nc1ccccc1Cl (centres unmarked),12.1
7,COc1ccc(CNC(=O)C2CCN(c3nccs3)CC2)cc1,-31.8
8,CCN1CCCC1CNC(=O)C(=O)NC1CC1 (centres unmarked),10.3
9,Cc1cc(C(=O)Nc2ccc(N3CCOCC3)cc2)c2ccccc2n1,-6.8
10,COc1ccc(CCNC(=O)C(=O)NCC2CCCO2)cc1OC (centres unmarked),3.13
11,Cn1cccc1/C=N/n1c(-c2ccc(C(C)(C)C)cc2)n[nH]c1=S,11.8
12,CN(C)S(=O)(=O)N(CC(=O)N1CCN(Cc2ccccc2)CC1)c1ccccc1,-17.5
13,CCOC(=O)c1c(NC(=O)CN2CCCCC2)sc(CN(C)C)c1-c1ccccc1,7.78
14,O=C(Nc1ccc2nccnc2c1)c1cnccn1,16.9
15,CCN(C(=O)C12CC3CC(CC(C3)C1)C2)C1CCS(=O)(=O)C1 (centres unmarked),12.2
16,O=C(CSc1nnc(-c2ccc(Cl)cc2)n1-c1ccc(Cl)cc1)N/N=C/c1ccco1,-41.7
17,COC(=O)c1ccc(C2CC(=O)Nc3cc(OC)c(OC)c(OC)c32)cc1 (centres unmarked),-13.5
18,CC(C)n1c(N2CCN(C(=O)Nc3ccc(Cl)cc3)CC2)nc2ccccc21,-36.3
19,Cn1c(=O)c2c(nc(NCC3CCCC(CN)C3)n2Cc2ccc(Cl)cc2Cl)n(C)c1=O (centres unmarked),-11.6
20,Cc1ccc(OCc2ccc(-c3ccccc3)cc2)c([N+](=O)[O-])n1,-0.0811
21,COc1ccccc1C(=O)NC(CCSC)C(=O)NNC(=O)c1ccncc1 (centres unmarked),2.99
22,Cc1ccc(OCC(=O)Nc2nnc(C3CCCO3)s2)c(Br)c1 (centres unmarked),23
